Measured values taken from the supplement of paper PMC8728848.
This is one part of the list.

Experiments:
Experiment in all cases: glycan array binding signal (z-score within array); higher = stronger binding
Settings in all cases: glycan notation: IUPAC condensed, linker removed
[1] = target: Neu5Ac(a2-6)GlcNAc(b1-4)GlcNAc
Outline: (§1)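 The binding signal is a Z-score computed within each array. Data were drawn from 3228 arrays in the Consortium for Functional Glycomics database, restricted to those with a known protein sequence. Scores were averaged over arrays of the same protein sequence at different concentrations or buffers, and over linkers, and negative values can be taken as non-binding.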

[2] = target: Neu5Ac(a2-6)GlcNAc(b1-4)GlcNAc(b1-4)GlcNAc
Outline: as §1

Neu5Ac(a2-8)Neu5Ac = target: Neu5Ac(a2-8)Neu5Ac
Outline: as §1

[3] = target: Neu5Ac(a2-8)Neu5Ac(a2-3)Gal(b1-3)GalNAc(b1-4)[Neu5Ac(a2-3)]Gal(b1-4)Glc
Outline: as §1

[4] = target: Neu5Ac(a2-8)Neu5Ac(a2-3)Gal(b1-3)GalNAc(b1-4)[Neu5Ac(a2-8)Neu5Ac(a2-3)]Gal(b1-4)Glc
Outline: as §1

[5] = target: Neu5Ac(a2-8)Neu5Ac(a2-3)Gal(b1-4)Glc
Outline: as §1

[6] = target: Neu5Ac(a2-8)Neu5Ac(a2-3)Gal(b1-4)GlcNAc
Outline: as §1

[7] = target: Neu5Ac(a2-8)Neu5Ac(a2-3)[Gal(b1-3)GalNAc(b1-4)]Gal(b1-4)Glc
Outline: as §1

[8] = target: Neu5Ac(a2-8)Neu5Ac(a2-3)[GalNAc(b1-4)]Gal(b1-4)Glc
Outline: as §1

[9] = target: Neu5Ac(a2-8)Neu5Ac(a2-8)Neu5Ac
Outline: as §1

[10] = target: Neu5Ac(a2-8)Neu5Ac(a2-8)Neu5Ac(a2-3)Gal(b1-4)Glc
Outline: as §1

[11] = target: Neu5Ac(a2-8)Neu5Ac(a2-8)Neu5Ac(a2-3)[Gal(b1-3)GalNAc(b1-4)]Gal(b1-4)Glc
Outline: as §1

[12] = target: Neu5Ac(a2-8)Neu5Ac(a2-8)Neu5Ac(a2-3)[GalNAc(b1-4)]Gal(b1-4)Glc
Outline: as §1

[13] = target: Neu5Ac(a2-8)Neu5Ac(a2-8)Neu5Ac(a2-8)Neu5Ac(a2-3)[GalNAc(b1-4)]Gal(b1-4)Glc
Outline: as §1

[14] = target: Neu5Ac(a2-8)Neu5Gc(a2-3)Gal(b1-4)GlcNAc
Outline: as §1

[15] = target: Neu5Ac(b2-6)Gal(b1-4)GlcNAc
Outline: as §1

Neu5Ac(b2-6)GalNAc = target: Neu5Ac(b2-6)GalNAc
Outline: as §1

[16] = target: Neu5Ac9Ac(a2-3)Gal(b1-3)GlcNAc
Outline: as §1

[17] = target: Neu5Ac9Ac(a2-3)Gal(b1-4)GlcNAc
Outline: as §1

[18] = target: Neu5Ac9Ac(a2-6)Gal(b1-4)GlcNAc
Outline: as §1

[19] = target: Neu5Gc(a2-3)Gal(b1-3)GlcNAc
Outline: as §1

[20] = target: Neu5Gc(a2-3)Gal(b1-3)[Fuc(a1-4)]GlcNAc
Outline: as §1

Neu5Gc(a2-3)Gal(b1-4)Glc = target: Neu5Gc(a2-3)Gal(b1-4)Glc
Outline: as §1

[21] = target: Neu5Gc(a2-3)Gal(b1-4)GlcNAc
Outline: as §1

[22] = target: Neu5Gc(a2-3)Gal(b1-4)GlcNAc(b1-3)Gal(b1-4)GlcNAc(b1-2)Man(a1-3)[Neu5Gc(a2-3)Gal(b1-4)GlcNAc(b1-3)Gal(b1-4)GlcNAc(b1-2)Man(a1-6)]Man(b1-4)GlcNAc(b1-4)GlcNAc
Outline: as §1

[23] = target: Neu5Gc(a2-3)Gal(b1-4)[Fuc(a1-3)]GlcNAc
Outline: as §1

[24] = target: Neu5Gc(a2-6)Gal(b1-4)GlcNAc
Outline: as §1

Neu5Gc(a2-6)GalNAc = target: Neu5Gc(a2-6)GalNAc
Outline: as §1

[25] = target: Neu5Gc(a2-8)Neu5Ac(a2-3)Gal(b1-4)GlcNAc
Outline: as §1

[26] = target: Neu5Gc(a2-8)Neu5Gc(a2-3)Gal(b1-4)GlcNAc
Outline: as §1

[27] = target: Neu5Gc(a2-8)Neu5Gc(a2-3)Gal(b1-4)GlcNAc(b1-3)Gal(b1-4)GlcNAc
Outline: as §1

[28] = target: Neu5Gc(a2-8)Neu5Gc(a2-6)Gal(b1-4)GlcNAc
Outline: as §1

[29] = target: Neu5Gc(b2-6)Gal(b1-4)GlcNAc
Outline: as §1

B1: CFEM-PPm (Pichia pastoris), F2QPV1 (protein)
chain: AVATPPACLLACAAEVVKESSDCDALNNIQCICENEGSAIHACLESTCPDGLSSTALQSFEDVCE
- glycan array binding signal (z-score) [1]: -0.351
- glycan array binding signal (z-score) [2]: -0.354
- glycan array binding signal (z-score) (Neu5Ac(a2-8)Neu5Ac): -0.096
- glycan array binding signal (z-score) [3]: 0.442
- glycan array binding signal (z-score) [4]: -0.11
- glycan array binding signal (z-score) [5]: -0.359
- glycan array binding signal (z-score) [6]: -0.338
- glycan array binding signal (z-score) [7]: 1.2
- glycan array binding signal (z-score) [8]: -0.199
- glycan array binding signal (z-score) [9]: -0.261
- glycan array binding signal (z-score) [10]: -0.411
- glycan array binding signal (z-score) [11]: -0.121
- glycan array binding signal (z-score) [12]: -0.311
- glycan array binding signal (z-score) [13]: -0.319
- glycan array binding signal (z-score) [14]: -0.109
- glycan array binding signal (z-score) [15]: -0.005
- glycan array binding signal (z-score) (Neu5Ac(b2-6)GalNAc): -0.43
- glycan array binding signal (z-score) [16]: -0.058
- glycan array binding signal (z-score) [17]: -0.336
- glycan array binding signal (z-score) [18]: -0.377
- glycan array binding signal (z-score) [19]: -0.237
- glycan array binding signal (z-score) [20]: -0.246
- glycan array binding signal (z-score) (Neu5Gc(a2-3)Gal(b1-4)Glc): -0.234
- glycan array binding signal (z-score) [21]: -0.235
- glycan array binding signal (z-score) [22]: -0.359
- glycan array binding signal (z-score) [23]: -0.063
- glycan array binding signal (z-score) [24]: -0.291
- glycan array binding signal (z-score) (Neu5Gc(a2-6)GalNAc): -0.287
- glycan array binding signal (z-score) [25]: -0.077
- glycan array binding signal (z-score) [26]: -0.188
- glycan array binding signal (z-score) [27]: -0.332
- glycan array binding signal (z-score) [28]: -0.186
- glycan array binding signal (z-score) [29]: -0.034
